T1: recombinant human 5T4 extracellular domain (human, UniProt Q13641 32-355)
T1 construct: The entry starts at Met 1; also called Hu 5T4; 5T4 ECD
T1 sequence: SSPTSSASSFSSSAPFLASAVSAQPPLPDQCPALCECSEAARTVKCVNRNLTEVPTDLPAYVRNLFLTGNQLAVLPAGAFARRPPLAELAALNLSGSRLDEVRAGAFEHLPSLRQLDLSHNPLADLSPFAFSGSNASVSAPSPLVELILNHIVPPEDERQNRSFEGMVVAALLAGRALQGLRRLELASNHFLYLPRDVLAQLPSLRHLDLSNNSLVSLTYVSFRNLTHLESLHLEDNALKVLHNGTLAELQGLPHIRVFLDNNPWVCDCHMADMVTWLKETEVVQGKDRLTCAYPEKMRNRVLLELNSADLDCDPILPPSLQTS

B1: ALG.APV-006 (bispecific antibody)
chain: EVQLLESGGGLVQPGGSLRLSCAASGFTFSYGSMYWVRQAPGKGLEWVSSISSGSGSTYYADSVKGRFTISRDNSKNTLYLQMNSLRAEDTAVYYCARSSYYGSYYSIDYWGQGTLVTVSSGGGGSGGGGSGGGGSGGGGSDIQMTQSPSSLSASVGDRVTITCRASQSISSYLNWYQQKPGKAPKLLIYAASSLQSGVPSRFSGSGSGTDFTLTISSLQPEDFATYYCQQYYDNLPTFGQGTKLEIKSSSEPKSSDKTHTCPPCPAPEAAGAPSVFLFPPKPKDTLMISRTPEVTCVVVDVSHEDPEVKFNWYVDGVEVHNAKTKPREEQYNSTYRVVSVLTVLHQDWLNGKEYKCAVSNKALPAPIEKTISKAKGQPREPQVYTLPPSRDELTKNQVSLTCLVKGFYPSDIAVEWESNGQPENNYKTTPPVLDSDGSFFLYSKLTVDKSRWQQGNVFSCSVMHEALHNHYTQKSLSLSPGSGGGGSGGGGSGGGGSPS[letters of about 100 residues left out]YYGGYYSAWMDYWGQGTLVTVSSGGGGSGGGGSGGGGSGGGGSDIQMTQSPSSLSASVGDRVTITCRASQSISSYLNWYQQKPGKAPKLLIYAASSLQSGVPSRFSGSGSGTDFTLTISSLQPEDFATYYCQQTYGYLHTFGQGTKLEIKS
notes: scFv-Fc-scFv (ADAPTIR) homodimer: 1618 anti-4-1BB scFv - Fc - 1210 anti-5T4 scFv; also called 1618 VHVL -Fc-1210 VHVL; parent construct
B2: ALG.APV-179 (bispecific antibody)
chain: EVQLLESGGGLVQPGGSLRLSCAASGFTFSHGSMYWVRQAPGKGLEWVSSISSGSGSTYYADSVKGRFTISHDNSKNTLYLQMNSLRAEDTAVYYCARSSYYGSYYSIDYWGQGTLVTVSSGGGGSGGGGSGGGGSGGGGSDIQMTQSPSSLSASVGDRVTITCRASQSISSYLNWYQQKPGKAPKLLIYAASSLQSGVPSRFSGSGSGTDFTLTISSLQPEDFATYYCQQYYDNLPTFGQGTKLEIKSSEPKSSDKTHTCPPCPAPEAAGAPSVFLFPPKPKDTLMISRTPEVTCVVVDVSHEDPEVKFNWYVDGVEVHNAKTKPREEQYNSTYRVVSVLTVLHQDWLNGKEYKCAVSNKALPAPIEKTISKAKGQPREPQVYTLPPSRDELTKNQVSLTCLVKGFYPSDIAVEWESNGQPENNYKTTPPVLDSDGSFFLYSKLTVDKSRWQQGNVFSCSVMHEALHNHYTQKSLSLSPGSGGGGSGGGGSGGGGSPS[letters of about 100 residues left out]YYGGYYSAWMDYWGQGTLVTVSSGGGGSGGGGSGGGGSGGGGSDIQMTQSPSSLSASVGDRVTITCRASQSISSFLNWYQQKPGKAPKLLIYAASSLQSGVPSRFSGSGSGTDFTLTISSLQPEDSATYYCQQTYGYLHTFGQGTKLEIKR
notes: scFv-Fc-scFv (ADAPTIR) homodimer
B3: ALG.APV-178 (bispecific antibody)
chain: EVQLLESGGGLVQPGGSLRLSCAASGFTFSHGSMYWVRQAPGKGLEWVSSISSGSGSTYYADSVKGRFTISHDNSKNTLYLQMNSLRAEDTAVYYCARSSYYGSYYSIDYWGQGTLVTVSSGGGGSGGGGSGGGGSGGGGSDIQMTQSPSSLSASVGDRVTITCRASQSISSYLNWYQQKPGKAPKLLIYAASSLQSGVPSRFSGSGSGTDFTLTISSLQPEDFATYYCQQYYDNLPTFGQGTKLEIKSSEPKSSDKTHTCPPCPAPEAAGAPSVFLFPPKPKDTLMISRTPEVTCVVVDVSHEDPEVKFNWYVDGVEVHNAKTKPREEQYNSTYRVVSVLTVLHQDWLNGKEYKCAVSNKALPAPIEKTISKAKGQPREPQVYTLPPSRDELTKNQVSLTCLVKGFYPSDIAVEWESNGQPENNYKTTPPVLDSDGSFFLYSKLTVDKSRWQQGNVFSCSVMHEALHNHYTQKSLSLSPGSGGGGSGGGGSGGGGSPS[letters of about 100 residues left out]YYGGYYSAWMDYWGQGTLVTVSSGGGGSGGGGSGGGGSGGGGSDIQMTQSPSSLSASVGDRVTITCRASQSISSYLNWYQQKPGKAPKLLIYAASSLQSGVPSRFSGSGSGTDFTLTISSLQPEDSATYYCQQTYGYLHTFGQGTKLEIKR
notes: as for B2
B4: ALG.APV-209 (bispecific antibody)
chain: EVQLLESGGGLVQPGGSLRLSCAASGFTFSHGSMYWVRQAPGKGLEWVSSISSGSGSTYYADSVKGRFTISHDNSKNTLYLQMNSLRAEDTAVYYCARSSYYGSYYSIDYWGQGTLVTVSSGGGGSGGGGSGGGGSGGGGSDIQMTQSPSSLSASVGDRVTITCRASQSISSYLNWYQQKPGKAPKLLIYAASSLQSGVPSRFSGSGSGTDFTLTISSLQPEDFATYYCQQYYDNLPTFGQGTKLEIKEPKSSDKTHTCPPCPAPEAAGAPSVFLFPPKPKDTLMISRTPEVTCVVVDVSHEDPEVKFNWYVDGVEVHNAKTKPREEQYNSTYRVVSVLTVLHQDWLNGKEYKCAVSNKALPAPIEKTISKAKGQPREPQVYTLPPSRDELTKNQVSLTCLVKGFYPSDIAVEWESNGQPENNYKTTPPVLDSDGSFFLYSKLTVDKSRWQQGNVFSCSVMHEALHNHYTQKSLSLSPGSGGGGSGGGGSGGGGSPS[letters of about 100 residues left out]YYGGYYSAWMDYWGQGTLVTVSSGGGGSGGGGSGGGGSGGGGSDIQMTQSPSSLSASVGDRVTITCRASQSISSFLNWYQQKPGKAPKLLIYAASSLQSGVPSRFSGSGSGTDFTLTISSLQPEDSATYYCQQTYGYLHTFGQGTKLEIKR
notes: scFv-Fc-scFv (ADAPTIR) homodimer, no stabilizing disulfide in the 1210 scFv; also called ALG.APV-222

The binders below were run against T1, recombinant human 5T4 extracellular … (assay: SPR, Biacore T-200, recombinant extracellular domain).
Experimental: In addition to the stability assessments that were performed, the binding affinity of ALG.APV-006 and the phage derived variants were determined by Surface Plasmon Resonance (SPR) using a Biacore T-200, using the recombinant extracellular domains of human 5T4 and human CD137.

| Kd | Binder |
| --- | --- |
| 149 nM | B1 |

These binders were tested against T2, recombinant human CD137 extracellular domain (human, UniProt Q07011 24-186) (assay: SPR, Biacore T200, bispecific captured by anti-human IgG, monomeric ECD injected, 1:1 model).
T2 construct: The entry starts at Met 1; also called Hu CD137; 4-1BB ECD
Experimental: (§1) Goat anti-human IgG F(ab′)2 fragment (Jackson ImmunoResearch) at 20 μg/mL in 10 mM sodium acetate (pH 4.5) was immobilized at a density of 2000 response units (RU) onto the flow cell of a CM5 research-grade sensor chip (GE) by standard amine coupling chemistry. Each bispecific variant at 200 nM in HBS-EP+ buffer was captured in the flow cell with the immobilized anti-human IgG at a flow rate of 50 μL/min for 60 sec to reach ˜500 RU response, leaving one flow cell surface unmodified as the reference. Following a 30 sec stabilization period, four different concentrations of each ECD (0, 20, 60, and 180 nM) were injected at 50 μL/min for either 120 sec followed by a 240 sec dissociation period (for 5T4) or 90 sec followed by a 180 sec dissociation period (for 4-1BB). Regeneration was achieved by duplicate injections of 10 mM glycine (pH 1.5) at a flow rate of 50 μL/min for 30 sec followed by HBS-EP+ buffer stabilization for 1 min.
(§2) Sensorgrams obtained from kinetic SPR measurements were analyzed by the double subtraction method. The signal from the reference flow cell was subtracted from the analyte binding response obtained from flow cells with immobilized or captured ligands. Buffer reference responses were then averaged from multiple injections. The averaged buffer reference responses were then subtracted from analyte binding responses, and the final double-referenced data were analyzed with Biacore T200 Evaluation software (2.0, GE), globally fitting data to derive kinetic parameters. All sensorgrams were fitted using a simple one-to-one binding model.

| Kd | koff | kon | Binder |
| --- | --- | --- | --- |
| 71 nM | 0.028 s⁻¹ | 390000 M⁻¹ s⁻¹ | B2 |
| 70 nM | 0.027 s⁻¹ | 390000 M⁻¹ s⁻¹ | B3 |
| 59 nM | 0.033 s⁻¹ | 560000 M⁻¹ s⁻¹ | B4 |
| 210 nM | 0.059 s⁻¹ | 280000 M⁻¹ s⁻¹ | B1 |

The binders below were run against T1, recombinant human 5T4 extracellular … in the same assay as above.
Experimental: as §1, §2

| Kd | koff | kon | Binder |
| --- | --- | --- | --- |
| 29 nM | 0.00062 s⁻¹ | 22000 M⁻¹ s⁻¹ | B2 |
| 106 nM | 0.0025 s⁻¹ | 23000 M⁻¹ s⁻¹ | B3 |
| 66 nM | 0.00094 s⁻¹ | 14000 M⁻¹ s⁻¹ | B4 |
| 109 nM | 0.0026 s⁻¹ | 24000 M⁻¹ s⁻¹ | B1 |

Source: US20190382503A1 (published 2019)
